The values below come from the supplement of paper PMC8813932.

Each structure is given as a SMILES string. Structures can show the parent of a compound that is named as a salt. ± gives the standard deviation of the averaged measurements. This is one part of the list. Repeats are few or missing, and single values can be far off.

Common to all, as to assay: log2 surviving fraction relative to plate median (drug vs vehicle, or drug+dl922-947 vs dl922-947 alone); ovarian cancer lines: OVCAR4 is platinum-sensitive while Ov4Cis resists cisplatin and Ov4Carbo carboplatin; higher = more cell survival
Settings in all cases: compound concentration: 10 uM, 192 h

In experiment [1] the test system is OVCAR4.
For experiment [2], the system named is Ov4Carbo.
Experiment [3] concerns Ov4Cis.
Setting [4] is: dl922-947 oncolytic adenovirus co-treatment: MOI 10.
The mark [5] stands for this setting: dl922-947 oncolytic adenovirus co-treatment: none.

For the compound `C/C=C(\C)C(=O)N[C@@H](c1ccccc1)[C@@H](O)C(=O)O[C@H]1C[C@@]2(O)[C@@H](OC(=O)c3ccccc3)[C@@H]3[C@]4(OC(C)=O)CO[C@@H]4C[C@H](O)[C@@]3(C)C(=O)[C@H](OC(C)=O)C(=C1C)C2(C)C` [Cephalomannine], the log2 surviving fraction in experiment [1] (setting [4]) was -7.26 ± 0.079; in experiment [1] (setting [5]) it was -9.9 ± 5.1; in experiment [2] (setting [4]) it was -5.96; in experiment [2] (setting [5]) it was -9.84; in experiment [3] (setting [4]), -5.6; in experiment [3] (setting [5]), -9.98.
Regarding `CC#C[C@]1(O)CC[C@H]2[C@@H]3CCC4=CC(=O)CCC4=C3[C@@H](c3ccc(N(C)C)cc3)C[C@@]21C` [Mifepristone (Mifeprex)], the log2 surviving fraction in experiment [1] (setting [4]) is -0.399 ± 0.55; in experiment [1] (setting [5]), -2.19 ± 1.1; in experiment [2] (setting [4]), 0.237; in experiment [2] (setting [5]), -3.27; in experiment [3] (setting [4]) it was -0.386; in experiment [3] (setting [5]) it was -2.81.
`O=P(O)(O)C(O)(Cc1cccnc1)P(=O)(O)O` [Risedronate sodium]: the log2 surviving fraction is 0.204 ± 0.3 in experiment [1] (setting [4]); 0.473 ± 1.2 in experiment [1] (setting [5]); -0.0678 in experiment [2] (setting [4]); 2.72 in experiment [2] (setting [5]); 1.07 in experiment [3] (setting [4]); 0.742 in experiment [3] (setting [5]).
`CCCCCCCCCCCCCCCC(=O)O[C@@H]1[C@@H](O)[C@@H](O)[C@@H]([C@H](NC(=O)[C@@H]2C[C@@H](CCC)CN2C)[C@H](C)Cl)O[C@@H]1SC` [Clindamycin palmitate HCl]: the log2 surviving fraction in experiment [1] (setting [4]) is -0.595 ± 0.025; in experiment [1] (setting [5]) it was -0.035 ± 0.23; in experiment [2] (setting [4]) it was -1.22; in experiment [2] (setting [5]), -0.476; in experiment [3] (setting [4]) it was -0.903; in experiment [3] (setting [5]), 0.187.
Consider `OCCOCCN1CCN(C2=Nc3ccccc3Sc3ccccc32)CC1` [Quetiapine fumarate (Seroquel)], for which the log2 surviving fraction in experiment [1] (setting [4]) was -1.09 ± 0.42; in experiment [1] (setting [5]) it was -1.73 ± 2; in experiment [2] (setting [4]), -3.39; in experiment [2] (setting [5]), -1.67; in experiment [3] (setting [4]), -1.46; in experiment [3] (setting [5]), 0.268.
Consider `Nc1nc2n[nH]nc2c(=O)[nH]1` [Azaguanine-8], for which the log2 surviving fraction in experiment [1] (setting [4]) is -0.875 ± 0.47; in experiment [1] (setting [5]), -3.17 ± 0.81; in experiment [2] (setting [4]), -1.84; in experiment [2] (setting [5]), -6.37; in experiment [3] (setting [4]) it was -0.526; in experiment [3] (setting [5]), -1.05.
Turning to `COc1ccc(C(=O)CC(=O)c2ccc(C(C)(C)C)cc2)cc1` [Avobenzone (Parsol 1789)], the log2 surviving fraction in experiment [1] (setting [4]) is -0.111 ± 0.31; in experiment [1] (setting [5]), -0.47 ± 0.41; in experiment [2] (setting [4]), -0.416; in experiment [2] (setting [5]), -0.486; in experiment [3] (setting [4]), 0.0334; in experiment [3] (setting [5]), -0.379.
Regarding `Cc1ccc(C(=O)Nc2ccc(CN3CCN(C)CC3)c(C(F)(F)F)c2)cc1C#Cc1cnc2cccnn12`, the log2 surviving fraction in experiment [1] (setting [4]) was -9.43 ± 0.53; in experiment [1] (setting [5]), -11.6 ± 6.6; in experiment [2] (setting [4]), -8.42; in experiment [2] (setting [5]), -11.7; in experiment [3] (setting [4]), -9.63; in experiment [3] (setting [5]), -14.5.
For the compound `N=C(N)N` [Guanidine HCl], the log2 surviving fraction in experiment [1] (setting [4]) was -0.837 ± 0.83; in experiment [1] (setting [5]) it was -0.627 ± 0.34; in experiment [2] (setting [4]), -0.205; in experiment [2] (setting [5]), 0.348; in experiment [3] (setting [4]), -1.16; in experiment [3] (setting [5]) it was -2.41.
For the compound `CC[C@H]1OC(=O)C[C@@H](O)[C@H](C)[C@@H](O[C@@H]2O[C@H](C)[C@@H](O[C@H]3C[C@@](C)(O)[C@@H](O)[C@H](C)O3)[C@H](N(C)C)[C@H]2O)[C@@H](CC=O)C[C@@H](C)C(=O)/C=C/C(C)=C/[C@@H]1CO[C@@H]1O[C@H](C)[C@@H](O)[C@@H](OC)[C@H]1OC` [Tylosin tartrate], the log2 surviving fraction in experiment [1] (setting [4]) was 0.00931 ± 0.27; in experiment [1] (setting [5]), -0.0804 ± 0.29; in experiment [2] (setting [4]), 0.355; in experiment [2] (setting [5]), -0.14; in experiment [3] (setting [4]) it was -0.191; in experiment [3] (setting [5]), 0.174.
Turning to `O=C(O)c1ccc(NC(=O)[C@H](Cc2ccc(O)cc2)NC(=O)c2ccccc2)cc1` [Bentiromide], the log2 surviving fraction in experiment [1] (setting [4]) was 0.686 ± 0.11; in experiment [1] (setting [5]), 0.95 ± 1.1; in experiment [2] (setting [4]) it was 0.024; in experiment [2] (setting [5]), 0.406; in experiment [3] (setting [4]), -0.18; in experiment [3] (setting [5]), 1.13.
Regarding `CCn1cc(C(=O)O)c(=O)c2cc(F)c(N3CCN(C)CC3)cc21` [Pefloxacin mesylate], the log2 surviving fraction in experiment [1] (setting [4]) is -0.123 ± 1.2; in experiment [1] (setting [5]), -0.552 ± 0.19; in experiment [2] (setting [4]), -0.432; in experiment [2] (setting [5]), 0.826; in experiment [3] (setting [4]), -1.25; in experiment [3] (setting [5]), 0.217.
As for `CCOC(CN1CCN(CC(C)C(=O)c2ccccc2)CC1)c1ccccc1` (configuration not stated) [Eprazinone 2HCl], the log2 surviving fraction in experiment [1] (setting [4]) is 0.105 ± 0.18; in experiment [1] (setting [5]) it was 0.356 ± 0.84; in experiment [2] (setting [4]) it was -0.113; in experiment [2] (setting [5]), 0.793; in experiment [3] (setting [4]) it was -0.0521; in experiment [3] (setting [5]), 0.623.
Regarding `O[C@@H]1CO[C@H]2[C@@H]1OC[C@@H]2O` [Isosorbide], the log2 surviving fraction in experiment [1] (setting [4]) was -0.141 ± 0.034; in experiment [1] (setting [5]), 0.535 ± 0.48; in experiment [2] (setting [4]), -0.355; in experiment [2] (setting [5]), 0.0885; in experiment [3] (setting [4]), 0.673; in experiment [3] (setting [5]) it was -0.02.
On to `O=C1[C@H](CC[C@H](O)c2ccc(F)cc2)[C@@H](c2ccc(O)cc2)N1c1ccc(F)cc1` [Ezetimibe (Zetia)], for which the log2 surviving fraction in experiment [1] (setting [4]) is -1.26 ± 0.96; in experiment [1] (setting [5]), -0.0754 ± 0.098; in experiment [2] (setting [4]) it was -2.91; in experiment [2] (setting [5]), -0.345; in experiment [3] (setting [4]) it was -1.32; in experiment [3] (setting [5]), 0.0284.
`O=S(=O)(O)Oc1ccc(C(c2ccc(OS(=O)(=O)O)cc2)c2ccccn2)cc1` [Sodium Picosulfate]: the log2 surviving fraction is 0.84 ± 0.22 in experiment [1] (setting [4]); 0.747 ± 0.74 in experiment [1] (setting [5]); -0.0519 in experiment [2] (setting [4]); 1.76 in experiment [2] (setting [5]); -0.153 in experiment [3] (setting [4]); 0.834 in experiment [3] (setting [5]).
Consider `N=C(N)NC(=O)c1nc(Cl)c(N)nc1N` [Amiloride hydrochloride dihydrate], for which the log2 surviving fraction in experiment [1] (setting [4]) is 0.389 ± 0.24; in experiment [1] (setting [5]) it was 0.285 ± 0.32; in experiment [2] (setting [4]) it was 0.804; in experiment [2] (setting [5]), -1.54; in experiment [3] (setting [4]), 0.176; in experiment [3] (setting [5]) it was 0.712.
Regarding `CN(C)c1nc(N(C)C)nc(N(C)C)n1` [Altretamine (Hexalen)], the log2 surviving fraction in experiment [1] (setting [4]) was -0.189 ± 0.28; in experiment [1] (setting [5]), -0.919 ± 0.91; in experiment [2] (setting [4]), -0.00391; in experiment [2] (setting [5]), 1.31; in experiment [3] (setting [4]), -0.612; in experiment [3] (setting [5]) it was 0.311.
With `CCCCNC(=O)NS(=O)(=O)c1ccc(C)cc1` [Tolbutamide], the log2 surviving fraction in experiment [1] (setting [4]) is 0.417 ± 1.2; in experiment [1] (setting [5]), 0.658 ± 0.31; in experiment [2] (setting [4]), 0.165; in experiment [2] (setting [5]), 0.712; in experiment [3] (setting [4]), 1.22; in experiment [3] (setting [5]), 0.592.
With `CCCCCCCCCCCCCCCCO` [1-Hexadecanol], the log2 surviving fraction in experiment [1] (setting [4]) was -0.361 ± 1.1; in experiment [1] (setting [5]), -0.232 ± 0.78; in experiment [2] (setting [4]) it was 0.189; in experiment [2] (setting [5]), -5.67; in experiment [3] (setting [4]), -1.37; in experiment [3] (setting [5]), -0.294.
Take `CC(C(=O)O)c1ccc(-c2ccccc2)c(F)c1` (configuration not stated) [Flurbiprofen (Ansaid)]: the log2 surviving fraction in experiment [1] (setting [4]) is 0.513 ± 0.6; in experiment [1] (setting [5]), 0.559 ± 0.018; in experiment [2] (setting [4]), 0.307; in experiment [2] (setting [5]), -1.51; in experiment [3] (setting [4]) it was 0.842; in experiment [3] (setting [5]), 0.488.
For the compound `CCCc1nc(C)c2c(=O)nc(-c3cc(S(=O)(=O)N4CCN(CC)CC4)ccc3OCC)[nH]n12` [Vardenafil (Vivanza)], the log2 surviving fraction in experiment [1] (setting [4]) is -0.185 ± 0.27; in experiment [1] (setting [5]), 0.183 ± 0.25; in experiment [2] (setting [4]), -0.563; in experiment [2] (setting [5]), -0.305; in experiment [3] (setting [4]), -0.486; in experiment [3] (setting [5]), -0.691.
